The shares of active, inactive and inconclusive entries below differ from those in the screen. For some of these results: Where the call is inconclusive, the potency comes from a doubtful curve fit. The source made the active and inactive calls. Unless noted, calls come from the whole dose curve; as a rule, active = well fitted curve in the direction sought with a large enough effect; inconclusive = small, poorly fitted or top-dose-only effect, or another doubt; inactive = no such curve, though single readings can be large; an effect the other way counts as inactive or inconclusive.
How the values were obtained:
[1] = qHTS of pediatric cancer cell lines to identify multiple opportunities for drug repurposing: Primary screen for A673 cells (AID 1347092); conditions: A673 Ewing sarcoma viability, CellTiter-Glo ATP luminescence, 48 h; activity change, negative = cytotoxic: at 46 µM (top of the series); note: nearly all actives have a fitted effect of over 45% in size
In short: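 Cells are plated, rested 5 h, dosed by pintool, incubated 48 h, then lysed with CellTiter-Glo and read by luminescence. DMSO is the neutral control; bortezomib at 2.3 uM final is the positive control.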

[2] = qHTS of pediatric cancer cell lines to identify multiple opportunities for drug repurposing: Primary screen for OHS-50 cells (AID 1347103); conditions: OHS-50 osteosarcoma viability, CellTiter-Glo luminescence, 48 h; activity change, negative = cytotoxic: at 57.3 µM (top of the series); note: nearly all actives have a fitted effect of over 40% in size
In short: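 Cells (500-1,000/well) rested 5 h, then received compounds for 48 h; metabolically active cells were measured by CellTiter-Glo luminescence. Final concentrations spanned up to 46 µM (MIPE, 11-point) or 0.59 nM-46 µM (NPC, 8-point) in primary screens, 11-point in follow-ups.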

[3] = qHTS of pediatric cancer cell lines to identify multiple opportunities for drug repurposing: Primary screen for Rh41 cells (AID 1347108);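 note: luminescence drop marks cytotoxic hits; nearly all actives have a fitted effect of over 70% in size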
In short: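 CRCs from 8- or 11-point titrations (lowest final 0.59 nM NPC, 0.78 nM MIPE). Cell viability: CellTiter-Glo after 48 h incubation, 15 min room-temperature development, luminescence imaging.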

[4] = test system: Zika virus NS2B-NS3 protease; test: Primary screen GU AMC qHTS for Zika virus inhibitors (AID 1347154); note: potency is the fitted concentration of half-maximal effect; nearly all actives have a fitted effect of over 70% in size
In short: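 Unlinked Zika NS2B hydrophilic domain/NS3 protease domain noncovalent complex (25 nM final) in 10 mM Tris-HCl pH 8.0, 0.01% Tween 20, with AMC peptide substrate. Fluorescence (ex 340, em 450 nm) change over 15 min, room temperature; percent inhibition fitted to 4-parameter Hill equation.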

[5] = Primary qHTS for small molecule stabilizers of the endoplasmic reticulum resident proteome: Secreted ER Calcium Modulated Protein (SERCaMP) assay (AID 1508630); conditions: SH-SY5Y GLuc-SERCaMP (Gaussia luciferase released on ER calcium loss) secretion, thapsigargin, luminescence; series mostly up to 38.4 µM; note: potency is the fitted concentration of half-maximal effect
In short: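 The SH-SY5Y reporter protocol was run at 3 concentrations up to 38.3 uM (primary) or 11 concentrations (follow-up): 16 h compound, 100 nM thapsigargin for 4 h, then extracellular luciferase luminescence.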

[6] = target: Cytochrome P450 2D6 (Homo sapiens) (UniProt P10635); test: Cytochrome P450 family 2 subfamily D member 6 (CYP2D6) small molecule antagonists: luciferase biochemical (cell-free) qHTS assay (AID 1645840; active = well fitted curve in the direction sought with a large enough effect in the repeat runs; inconclusive = weak or mixed curves; inactive = no such curve, though single readings can be large; an effect the other way counts as inactive or inconclusive; note: potency is the fitted concentration of half-maximal effect; nearly all actives have a fitted effect of over 55% in size)
UniProt P10635, sequence (P10635 whole entry, looked up): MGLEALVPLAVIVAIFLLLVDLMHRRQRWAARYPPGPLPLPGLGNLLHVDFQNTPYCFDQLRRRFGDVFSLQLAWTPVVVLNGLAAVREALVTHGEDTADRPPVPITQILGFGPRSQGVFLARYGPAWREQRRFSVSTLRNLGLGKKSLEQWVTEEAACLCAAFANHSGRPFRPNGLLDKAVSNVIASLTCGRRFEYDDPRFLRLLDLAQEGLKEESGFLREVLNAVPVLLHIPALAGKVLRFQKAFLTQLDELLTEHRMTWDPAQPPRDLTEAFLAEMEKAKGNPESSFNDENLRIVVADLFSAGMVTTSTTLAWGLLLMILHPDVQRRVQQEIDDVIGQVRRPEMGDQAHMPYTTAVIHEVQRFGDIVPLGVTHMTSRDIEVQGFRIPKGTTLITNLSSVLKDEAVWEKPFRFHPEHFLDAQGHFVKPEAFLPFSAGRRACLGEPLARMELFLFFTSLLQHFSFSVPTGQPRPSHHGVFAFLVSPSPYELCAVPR
In short: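 P450-Glo CYP2D6 system: proluciferin substrate converted by enzyme to luciferin, read by luminescence proportional to activity. Enzyme-substrate mix with compound 10 min at room temperature, then NADPH regeneration 1 h before detection reagent.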

[7] = test system: CAOV3; test: Primary qHTS to identify gynecologic anti-cancer compounds using libraries of approved drugs and bioactive compounds (AID 1345084); conditions: Gynecologic cancer cell panel viability, ATPlite luminescence, 48 h; series mostly up to 57.5 µM; note: nearly all actives have a fitted effect of over 55% in size; note: potency is the fitted concentration of half-maximal effect
In short: (§1)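 Five-point cytotoxicity, 48 h drug exposure at 37 C, 5% CO2, on cells seeded 16 h beforehand. ATP content read by ATPlite luminescence.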

[8] = test system: Es-2; test: as above; conditions: Gynecologic cancer cell panel viability, ATPlite luminescence, 48 h; series mostly up to 57.5 µM
In short: as §1

[9] = test system: JEG-3; test: as above; conditions: Gynecologic cancer cell panel viability, ATPlite luminescence, 48 h; series mostly up to 57.5 µM
In short: as §1

[10] = test system: Tov-21-G; test: as above; conditions: Gynecologic cancer cell panel viability, ATPlite luminescence, 48 h; series mostly up to 57.5 µM
In short: as §1

Measured: Potency
Tags give direction and shape of the fitted curve.

COc1ccc2cc(C=O)ccc2c1
inconclusive: [5] 11.2 µM [inhibitor, partial curve, poor fit] | [6] 27.5 µM [inhibitor, single point] | [7] 1.41 µM [cytotoxic, single point]
inactive: [1] | [2] | [3] | [8] | [9] | [10]
active: [4] 31.6 µM

Source: PubChem BioAssay (NCATS)
